Measurements taken from publication PMC12040169 (PLOS Biology, 2025).
Some of the results follow.

system: T1, C. trachomatis L2/434/Bu expressing GFP (CTL2-GFP); parameters: species or system HeLa; C. trachomatis total inclusion area by high-content imaging, normalised to DMSO; settings: total inclusion area; 28.5 h, 10 µM; inhibitor
T1 construct: L2/434/Bu GFP intracellular growth in HeLa cells
How it was run: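 Bulk GFP and resorufin signals were read first. Wells were then fixed, stained with Hoechst and imaged to detect GFP inclusions and host nuclei. MICs followed the previously described calculation.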

Row | SMILES | % of control remaining
1 | CN(C)C(=O)c1ccc(-c2ccc3c(c2)COC(C2CCN(C(=O)Cc4ccc(C#N)cc4)CC2)O3)cc1 (stereo not shown) [CBK149760] | 55.6376
2 | CCOC(=O)C1N(C)C(=O)C(Cc2c(Cl)cccc2Cl)=C(C)N1C (stereo not shown) [CBK112643] | 66.6139
3 | CNC(=O)C1(Cc2ccc(-c3cccc(C)c3)cc2)CCN(C(=O)C(C)(C)C)CC1 [CBK285755] | 102.186
4 | NC(=O)C1CCN(C2CC(=O)N(c3cccc([N+](=O)[O-])c3)C2=O)CC1 (stereo not shown) [CBK265555] | 96.5501
5 | O=C(C1=C(O)C(=O)N(CCCN2CCOCC2)C1c1ccc(Cl)c(Cl)c1)c1cccs1 (stereo not shown) [CBK264565] | 98.6848
6 | Cc1nnc(CN(C)C2CCN(CC3CCCC3)C2)n1C (stereo not shown) [CBK304851] | 81.4896
7 | O=C(O)c1cc(C(=O)O)n(Cc2ccccc2Cl)n1 [CBK269381] | 119.197
8 | Cc1ccc(S(=O)(=O)N(CC(=O)N/N=C\c2ccc3c(c2)OCO3)c2cccc3cccnc23)cc1 [CBK262478] | 72.8381
9 | Cc1ccc(C(=O)C2=C(O)C(=O)N(Cc3cccnc3)C2c2cccc(Oc3ccccc3)c2)o1 (stereo not shown) [CBK264619] | 108.774
10 | O=C(Nc1cccnc1)N1CCN(CCc2ccccc2)CC1 [CBK158937] | 67.4203
11 | COc1ccc(C=O)cc1CSc1nc2ccccc2[nH]1 [CBK266209] | 103.287
12 | Cc1cc(C)n(C2CN(C(=O)NCCCOc3cccnc3)C2)n1 [CBK307632] | 63.1823
13 | CCCC/C=C/c1cnc(N)c(Nc2ccc(OC)cc2C)n1 [CBK064090] | 119.75
14 | CN(CCN1CCCCC1)C(=O)C1CC(=O)Nc2ccccc21 (stereo not shown) [CBK282729] | 132.441
15 | Cc1ccc(-c2ccccc2CC2(C(=O)Nc3cccc(C(N)=O)c3)CCOCC2)c(C)c1 [CBK286423] | 74.9578
16 | COc1ncc(-c2cnc3[nH]c(=O)n(CC4CCOCC4)c3n2)cn1 [CBK064898] | 126.147
17 | COCCNC(=O)c1nn2c(c1Br)NC(c1cccs1)CC2C(F)(F)F (stereo not shown) [CBK307178] | 62.498
18 | O=C1CN(C(=O)CCn2c(C(F)(F)F)cc3cccnc32)CCN1 [CBK284888] | 107.938
19 | CCOc1cccc(C(=O)NN2CCN(C)CC2)c1 [CBK268184] | 96.2545
20 | C#CCOc1cncc(Cl)n1 [CBK113370] | 78.5823
21 | Cc1ccc(S(=O)(=O)NC(=O)c2cc(C)n(-c3ccc(N(C)C)cc3)c2C)cc1 [CBK296085] | 69.9571
22 | COc1cc(NC(=O)c2c(C)[nH]c(=O)[nH]c2=S)cc(C(F)(F)F)c1 [CBK115495] | 90.7659
23 | Cc1ccc(-c2nc(Nc3ccc(F)cc3)sc2CC(=O)O)cc1 [CBK264286] | 108.526
24 | CC(C)Cc1cnc2c(c1SCc1ccc(F)cc1)c(=O)n(C)c(=O)n2C [CBK294409] | 111.186
25 | CCN1CCN(Cc2c(C(C)C)[nH]c3ncccc23)CC1 [CBK285343] | 88.819
26 | O=C(NC1CCN(C(=O)Cn2ccc3ccncc32)CC1)C1CC1 [CBK284731] | 69.5255
27 | CCC1(CC)Cc2ccccc2-c2nc(NN)n(Cc3ccccc3)c(=O)c21 [CBK263217] | 13.496

Row | SMILES | % of control remaining
28 | CC(C(=O)Nc1ccc(S(N)(=O)=O)cc1)N1Cc2ccccc2C1=O (stereo not shown) [CBK307607] | 63.9994
29 | COc1cc(Nc2nc(-c3cccc(NC(C)=O)c3)cn3ccnc23)cc(OC)c1OC [CBK038093] | 108.541
30 | Cc1ccc(S(=O)(=O)c2cc3c(=O)n4ccccc4nc3n(CCCN3CCOCC3)c2=N)cc1 [CBK265590] | 94.0364
31 | Brc1ccsc1-c1csc(-c2ccccc2)n1 [CBK019859] | 78.5009
32 | CCOC(=O)C1=C(N)OC2=C(C(=O)CC(C)(C)C2)C1c1cc(OCC)ccc1OCC (stereo not shown) [CBK008699] | 109.379
33 | CC(NC1=NC(C)(C)Cc2ccccc21)C(=O)O (stereo not shown) [CBK262575] | 105.42
34 | O=C(c1cccs1)N1CCC(n2cnc3cccnc32)CC1 [CBK283938] | 65.0987
35 | Cc1ccc2nc(SCCC(=O)O)cc(C)c2c1 [CBK286861] | 88.8169
36 | c1ccc2c(c1)CCCN2Cc1ncc[nH]1 [CBK138332] | 85.6173
37 | COC(=O)c1ccccc1NC(=O)CNC(=O)c1ccccc1Cl [CBK269113] | 111.169
38 | COc1c(C)cccc1C(=O)N1CCC(c2cc3cnccc3[nH]2)CC1 [CBK283460] | 97.5258
39 | CN(C)c1cccc(NC(=O)Nc2ncc(Br)c3cccnc23)c1 [CBK107633] | 95.1731
40 | COc1cc(-c2ccc(NCCn3cc[nH]c3=O)nc2)cc(OC)c1OC [CBK036907] | 140.078
41 | Cc1cc(O)ccc1Nc1cc(-c2cc3ccccc3s2)ncn1 [CBK091057] | 62.3602
42 | O=C(NCCNc1cnccn1)c1cccc(Cl)c1Cl [CBK305727] | 70.4677
43 | CN(C)Cc1ccc(C(=O)N2CCCC2(C)C(=O)N(C)C)cc1 (stereo not shown) [CBK281955] | 102.393
44 | O=C(NC(Cc1ccsc1)c1cccnc1)C1CCOCC1 (stereo not shown) [CBK285110] | 103.759
45 | COc1ccc([C@@]23CC[C@H](NC(=O)Nc4cccc(C(F)(F)F)c4F)C[C@@H]2CN(C)C3)cc1OC [CBK063200A] | 52.7563
46 | c1ccc(Oc2cccc(OCCCN3CCCCC3)c2)cc1 [CBK261781] | 32.198
47 | Cc1ccc(C(=O)Nc2ccc(C)nc2C)cn1 [CBK200289] | 110.126
48 | CCc1nc2c(OCc3ccc(Cl)cc3)cccn2c1N(C=O)CC(=O)N(C)C [CBK147518] | 101.357
49 | COc1cccc(C(=O)NC(c2ccc(OC)c(OC)c2)c2cc(Cl)c3cccnc3c2O)c1 (stereo not shown) [CBK264048] | 110.313
50 | CCCN(CC1CCCO1)C(=O)c1cnn(-c2ccc(F)cc2)c1 (stereo not shown) [CBK283317] | 97.3946
51 | CNC(=O)C1(Cc2ccc(-c3ccccc3)cc2)CCN(C(=O)Cc2ccccc2F)CC1 [CBK285768] | 121.09
52 | CCc1ccc(S(=O)(=O)Nc2cccnc2)cc1 [CBK287782] | 88.8565
53 | CC1=NN(C(=O)c2ccc(Cl)cc2)C(C)(C)C1 [CBK058904] | 100.081
54 | NC(=O)CSc1nnc(COc2ccc(Br)cc2)n1-c1ccccc1 [CBK267277] | 100.205

Row | SMILES | % of control remaining
55 | O=C1c2ccc(Oc3ccc4c(c3)C(=O)N(c3ccncc3)C4=O)cc2C(=O)N1c1ccncc1 [CBK261399] | 94.0433
56 | COCc1ccc(C(=O)N2CCCC(c3cc4ncccc4[nH]3)C2)o1 (stereo not shown) [CBK282106] | 81.6404
57 | COC(=O)c1ccccc1NC(=O)CCSc1ccc(Cl)cc1 [CBK263817] | 78.2718
58 | O=C(O)CSc1nc2ccccc2n1CC(=O)O [CBK267128] | 108.611
59 | CCCCc1ccc(-c2nccn2CC2CN(C(C)=O)CCO2)s1 (stereo not shown) [CBK307600] | 66.56
60 | O=C1CC(N2CCC(c3nc4ccccc4o3)CC2)C(=O)N1Cc1cccs1 (stereo not shown) [CBK268735] | 99.4219
61 | O=S(=O)(Nc1nc2cc(Cl)ccc2o1)c1ccc(Oc2ccccc2)cc1 [CBK050499] | 110.616
62 | Cc1nc(NS(=O)(=O)c2ccc3ccccc3c2)sc1C(=O)O [CBK045548] | 59.6676
63 | O=C(Cn1c(C2CCCNC2)cc2cccnc21)N1CCCCCC1 (stereo not shown) [CBK285014] | 99.4483
64 | CCOc1ccc(CN2CCNC(=O)C2CC(=O)O)cc1 (stereo not shown) [CBK269242] | 43.8475
65 | Cc1cc2oc(C(=O)Nc3nc(-c4ccc(S(=O)(=O)N5CCCC5)cc4)cs3)c(C)c2cc1C [CBK266309] | 120.96
66 | CC1CCN(Cc2ccc(-c3nnn(CC(=O)NCc4ccc(S(C)(=O)=O)cc4)n3)cc2)CC1 [CBK144152C] | 95.1513
67 | Cc1cc(NC(=O)c2cccc(C(F)(F)F)c2)nc2c1c(=O)oc1ccccc12 [CBK291163] | 102.195
68 | Cc1nn(C)c(Cl)c1S(=O)(=O)Nc1cc(N2CCN(C(=O)OC(C)(C)C)CC2)c2occc2c1 [CBK067787] | 92.0363
69 | CSCCCNC(=O)c1cnn2c(C)c(Cc3ccccc3C)c(C)nc12 [CBK162028] | 96.3227
70 | CCC1=NN2C(=N)/C(=C/c3ccc(OC)cc3)C(=O)N=C2S1 [CBK101905] | 104.192
71 | Cc1ccc(CN(CCCn2ccnc2)Cc2c[nH]cn2)s1 [CBK283136] | 84.0959
72 | COc1cc(C(=O)O)ccc1OCC(=O)Nc1ccc(F)cc1 [CBK287101] | 90.4516
73 | Cn1nccc1C(O)c1cc2n(n1)CCCN(C(=O)Cc1cccs1)C2 (stereo not shown) [CBK306930] | 93.19
74 | O=C(OCc1ccccc1)N1CCC2(CC1)CN(CCO)c1ccccc12 [CBK022627] | 81.2005
75 | O=C(Nc1nnc(-c2ccco2)o1)c1ccccc1 [CBK287420] | 101.756
76 | Cc1ccccc1-n1c(SC(C)C)nc2sc3c(c2c1=O)CC(C)(C)OC3 [CBK091874] | 71.2472
77 | Cc1nc2c(c(=O)[nH]1)CCN(Cc1ccc(-c3ccccc3)cc1)C2 [CBK283970] | 93.2932
78 | Cc1cccc(-c2ncc(NC(=O)COc3ccc([N+](=O)[O-])cc3)nc2-c2cccnc2)c1 [CBK037096] | 124.157
79 | COc1cc(CNc2nnn[nH]2)cc(Br)c1OCc1ccc(Cl)cc1 [CBK300496] | 96.5495
